Laboratory results reported in the RNAGym collection of RNA variant scans (doi:10.7554/elife.90254).
Read counts are not given, so values of variants with three or more changes are uncertain.

B1: LINE1-mini (parent)
chain: GGCAGAGCUCAACACAGCGUGGCAAAGUGGCUGUGGCUAGACUGCC

Variants of: B1
Assay: self-cleavage, relative activity (ratio to wild type); higher = more cleavage; in vitro, sequencing; the parent is a self-cleaving ribozyme

Row | Variant | self-cleavage
1 | GGCAGAGCUCAACAAAGCGUGGCGUAGUGGCUCUGGCUAGAUUGCC | 0.03
2 | GGCAGAGCUCAACAAAUAGUGGCAAAGUGGCUGUGCCUAGACUGCU | 0.02
3 | GGCAGAGCUCAACAAAGCGUGGCCAAGUGGUUAUGGCUAGACUGCC | 0.03
4 | GGCAGAGCUCAACAAAGCGUGGCGAUGUGGUGGUGACUAGACUGCC | 0.25
5 | GGCAGAGCUCAACAAAGCGUGGCAGAGUGGCUGUGGCUAGACUACC | 0.12
6 | GGCAGAGCUCAACAAAGCAUAUCAAAGUGGCUGUGGCUAGACUGCC | 0.3
7 | GGCAGAGCUCAACAAAGCCUAGCAUAGUGGCUGUGGCUAUACUGCC | 0
8 | GGCAGAGCUCAACAAACAGUGGCAAAUUGGCUGUGCCUAGACUGCC | 0.01
9 | GGCAGAGCUCAACAAAGCUUGGCAAAGUGGCUGUGGCUAGAUUGCC | 0.38
10 | GGCAGAGCUCAACAAAGCGUAGGAAAGUCGCUGUGGCUAGACUGCC | 0.32
11 | GGCAGAGCUCAACAAAGUGUGUCAAAAUGGCUGUGGCUAGACUGCC | 0.09
12 | GGCAGAGCUCAACAAAUCGGGGCAAAGAGGCUGUGGCUAGACUGCC | 0.04
13 | GGCAGAGCUCAACAAAGCUUCGCAAAGUGGCUGUGGCUAGACUGCC | 0.11
14 | GGCAGAGCUCAACAAACCGUGGCAAAGUGGCUGCGGCUAGACUGCC | 0.01
15 | GGCAGAGCUCAACAAAGCGUGGAAACGUUGCUGUGGCUAGAAUGCC | 0.13
16 | GGCAGAGCUCAACAAAGCAUGGCAAACUGGCUGUGGCUAGACUGCC | 0.03
17 | GGCAGAGCUCAACAAAGCGUGGCAUAGUGGCUGUGGUUAUACUCCC | 0.03
18 | GGCAGAGCUCAACAAAGCGUGGCUAAGUGGCUGUCGCUACACCGCC | 0
19 | GGCAGAGCUCAACAAAGCAUUGCAAAGUGGCUGUGACUAGACUGCC | 0.03

Row | Variant | self-cleavage
20 | GGCAGAGCUCAACAAAGUGUGGCAAGGGGGCUCUGGCUAGACUGCC | 0.01
21 | GGCAGAGCUCAACAAAGCGUGGGAAAGUGGCUGCGGCUAGACUGCC | 0.08
22 | GGCAGAGCUCAACAAAGCUUGGCGAAGUGGCUGUGGCUAUACUGCC | 0.02
23 | GGCAGAGCUCAACAAAGCGUGGCAAUGUGGCUUUCGCUAGACUGAC | 0.07
24 | GGCAGAGCUCAACAAAGCGUGGUCAAGCGGCUGUGGCUGGACUGCC | 0.03
25 | GGCAGAGCUCAACAAAGCGUGGCAAAGUGGCUGUGGCUAGCCCGCC | 0
26 | GGCAGAGCUCAACAAUGCGUGGCAAACUGGCUGUGGCUAGACUACU | 0.06
27 | GGCAGAGCUCAACAAAUCGUGGCCAAGUGCCGGUGCCUAGACUGCC | 0.02
28 | GGCAGAGCUCAACAAAGCCUGGCAAUGGGGCUGUGAUUAGACUGCC | 0.03
29 | GGCAGAGCUCAACAAAGCGUGGCUAAGUGGGUGUGGCUAGACUGCC | 0.01
30 | GGCAGAGCUCAACAAACCGUGGCAAAGUGGCUGUGGCUCGUCUGCC | 0.01
31 | GGCAGAGCUCAACAAAGCGUGGGAAAGUUGCUGUGGCUAGCCUGCC | 0.02
32 | GGCAGAGCUCAACAAAGCGUGGCCAAGUGGCUGUGGCUUGACUGCC | 0.02
33 | GGCAGAGCUCAACAAAGCAUCGCAAAGUGGGUGUUGCCAGACUGCC | 0.02
34 | GGCAGAGCUCAACAAAGCGUGGCAAAGUGGGUGUGCCUAGACUGCC | 0.12
35 | GGCAGAGCUCAACAAAGCGUGGCAAAGUGGCUGUGGCUAGUCGGCC | 0.03
36 | GGCAGAGCUCAACAAAUCGUGGCAACGUGGCUUUGGCUAGACUGCC | 0.09
37 | GGCAGAGCUCAACAAAACGUGGCAAACUGGCUGUGGCUAGACUGAC | 0.02
38 | GGCAGAGCUCAACAAAGGGUGCCAAAAUGGCUGCGGCUAGACUGCC | 0.04

Row | Variant | self-cleavage
39 | GGCAGAGCUCAACAAAGGGUGGUAAAGCGGCUGUGGCUAGACUGCC | 0.09
40 | GGCAGAGCUCAACAAAGCUUGGCAAAGUGGCUGUGGCUAUACUGCC | 0.04
41 | GGCAGAGCUCAACAAAGCGUGGCAAAGUGGCUGUGGCUUUACUUCC | 0.03
42 | GGCAGAGCUCAACAAAGAGUCGCAAAGUGGCUGUGGCUAGACUGCC | 0.04
43 | GGCAGAGCUCAACAAAGCGUAAUAAAGUGGCUGUGGCUAGACUGCC | 0.18
44 | GGCAGAGCUCAACAAAGAGUCGCAAAGUGGCUGUGGCUGGACUGCC | 0.02
45 | GGCAGAGCUCAACAAAGCGUGGCAAAGUGGCUGUGGCUAGUCUUCC | 0.01
46 | GGCAGAGCUCAACAAAGCGUGGCAUAAUGCCUGUGGCUGGACUGCC | 0.1
47 | GGCAGAGCUCAACAAAGCGUGGCAGAGUGGCUGUGGCUACACUGCC | 0.02
48 | GGCAGAGCUCAACAAAGCGUGGCAACAUGGCUGUGGCUAGACGGCC | 0
49 | GGCAGAGCUCAACAAAGCUUGGCAAAGUGGCUGUGUCUAGACAGCC | 0.03
50 | GGCAGAGCUCAACAAAGCGUGGCAACGUGGCUGUGGCUAGACUGUC | 0.01
51 | GGCAGAGCUCAACAAAGCGUGGCAAGGUGGCUGUGGCUGGACUGCC | 0.02
52 | GGCAGAGCUCAACAAAGCAUGGCAAGGUGGCUGUGGCUAGAAUGCC | 0.05
53 | GGCAGAGCUCAACAAAACGUGGCAAAGUGGCUGAGGCUAGACUGCC | 0.02
54 | GGCAGAGCUCAACAAAGAGUGGCAAAGUGGCUGUGGCUAGACUACC | 0.08
55 | GGCAGAGCUCAACAAAGCGUGGCGAAUUGGCUGUGGCUAGACUGCA | 0.01
56 | GGCAGAGCUCAACAAAGCGUGGUAAAUUGGCUGUGGCUAGACUGCC | 0.15
